According to PubChem BioAssay AID1508623 (National Center for Advancing Translational Sciences (NCATS), 2021):
In all, about 48,000 compounds went through this assay and about 450 (0.94%) were called active. Roughly 19% stayed inconclusive and do not appear here. Calls follow the shape of the dose curve; as a rule, active = well fitted inhibition curve with a large enough effect; inconclusive = small, poorly fitted or top-dose-only effect; inactive = no such curve, though single readings can be large or run the other way. The list shows a part of the results.

Assay: Primary qHTS for Identification of Small Molecule Inhibitors of Huntingtin Promoter Activity; also: nearly all actives have a fitted effect of over 50% in size
Settings: HEK293 HTT promoter firefly luciferase reporter (activity 0% = vehicle and -100% = no light), 24 h; series mostly up to 57.5 µM; activity change, negative = inhibition: at the top concentration
Outline: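 Firefly luciferase readout (Dual-Glo, 10 min RT) after 24 h, 37 °C compound exposure (final up to 57.5 uM) of HEK293 reporter cells cultured 24 h beforehand; PTC124 at 50 uM final as control inhibitor; activity scaled vehicle 0%, zero RLU -100%.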
Potency is read from the fitted curve at half-maximal effect.

Structure (SMILES)	activity change, negative = inhibition	Potency
O=c1c(S(=O)(=O)c2ccccc2)cn(Cc2ccc(F)cc2)c2cc(N3CCOCC3)c(F)cc12	inactive: -10.5%	
CC(=O)C1=C(c2ccc(Cl)c(Cl)c2)N(C(C)=O)n2c(nnc2-c2ccccc2)S1	inactive: -8.86%	
O=C(COCc1cc(-c2ccc(F)cc2)on1)Nc1cc(Cl)ccc1O	inactive: -12.8%	
COc1ccc(CCNC(=O)CCCn2c(=O)c3ccccc3n(Cc3ccccc3C#N)c2=O)cc1OC	inactive: -4.18%	
Nc1nonc1C(=O)NCCNCc1ccccc1F	inactive: -5.76%	
COc1cccc(C2C=C(c3ccccc3)Nc3c(C(=O)Nc4ccccc4)cnn32)c1OC (centres undefined)	inactive: -9.44%	
COc1cc(C(CC(=O)Nc2cccc(C(C)=O)c2)N2Cc3ccccc3C2=O)cc(OC)c1OC (centres undefined)	inactive: -6.8%	
CC(=O)Nc1nonc1-c1nnc(SCC(=O)Nc2cc(Cl)ccc2C)n1C	inactive: -17.6%	
CC1(C)[C@H](C(=O)O)N2C(=O)C[C@H]2S1(=O)=O	inactive	
CCOC(=O)c1c(NC(=O)/C=C/c2ccc(C)cc2)sc(C(C)=O)c1C	inactive: -0.802%	
Cc1cccc(C(=O)Nc2sc3c(c2C(=O)NC(C)C)CCCC3)c1	inactive: -20.9%	
CCOC(=O)c1cc(S(=O)(=O)NCc2cccc(Cl)c2)[nH]n1	inactive: 11.1%	
CCOC(=O)c1cnc2cc(F)c(F)cc2c1Nc1ccccc1O	inactive: -3.9%	
CC(C)(C)OC(=O)N1CCC(c2c(C(=O)N3CCCCC3)cnn2-c2cccc(F)c2)CC1	inactive: -11.3%	
Nc1nnnn1-c1ccccc1	inactive: -2.51%	
CC(=O)c1ccc(N2CCN(C(=O)CCc3nnc4n(C)c(=O)c5sccc5n34)CC2)cc1	inactive: -19.4%	
COc1cc(OC)c(NC(=O)c2noc3c2CSc2ccccc2-3)cc1Cl	inactive: -15.8%	
CCCCn1c(SCC(=O)Nc2ccc(OCC)cc2)nc2ccsc2c1=O	inactive: 2.92%	
Cc1ccc(CNC(=O)CSc2ncc3c(n2)-c2ccc(Cl)cc2N(Cc2ccccc2)S3(=O)=O)cc1	inactive: -2.28%	
Cc1ccc(NS(=O)(=O)c2cc3[nH]c(=O)c(=O)[nH]c3cc2C)cc1N(C)C	inactive: 9.27%	
CCc1ccccc1NC(=O)[C@@H](c1ccccc1)N1Cc2ccccc2C1=O	inactive: -16.8%	
Cc1ccc(NC(=O)CCCn2c(=O)c3cccn3c3cccnc32)cc1C	inactive: 3.01%	
Cc1ncc(CO)c(CO)c1O	inactive: 6.75%	
CC(C)CC(=O)Nc1ccccc1OCc1cc(=O)n2ccccc2n1	inactive: -2.78%	
O=C(Nc1ccc(Br)cc1F)N1CCC(CN2CCc3ccccc3C2)CC1	inactive: -24.9%	

Structure (SMILES)	activity change, negative = inhibition	Potency
COc1ccc(C(=O)COC(=O)CCCC(=O)Nc2cc(C(F)(F)F)ccc2Cl)cc1	inactive: 0.104%	
COc1ccc(OCC(=O)OCc2cc(=O)n3nc(C4CC4)sc3n2)cc1	inactive: -26.7%	
CCCCOC(=O)c1ccc(NC(=O)c2cc(-c3cccs3)on2)cc1	inactive: -7.06%	
Cc1ccc(Nc2c(-c3ccc(C)s3)nc3ncccn23)cc1	inactive: 60.4%	
CCOC(=O)c1c(NC(=O)/C=C/c2ccc(C)cc2)sc2c1CCCC2	inactive: -3.35%	
Cc1ccc(CNC(=O)CCCc2nnc3n(C)c(=O)c4sccc4n23)cc1	inactive: 1.5%	
O=C(NCCc1ccc(Cl)cc1)c1cc(-c2ccc(Cl)cc2)n[nH]1	inactive: -2.11%	
Cc1ccc(NC(=O)C(=O)NCC(c2ccc3c(c2)OCO3)N2CCOCC2)cc1C (centres undefined)	inactive: -12.6%	
CCC(C)NC(=O)c1ccc2nc(CCc3ccccc3)oc2c1 (centres undefined)	inactive: 26.8%	
CCOc1ccc(NC(=O)CCCc2nnc3n(C)c(=O)c4sccc4n23)cc1	inactive: -13.1%	
O=C(NCc1ccccc1F)C(=O)NCC(c1ccco1)S(=O)(=O)c1cccs1 (centres undefined)	inactive: -14.9%	
CC1=C(C(=O)Nc2ccccc2)C(c2cccc(Cl)c2)n2nc(SCC(=O)c3ccc(C)cc3)nc2N1 (centres undefined)	inactive: -11.8%	
Cc1cccc(OCC(=O)Nc2ccccc2C(=O)OCc2cc(=O)n3nc(C)sc3n2)c1	inactive: -11.1%	
O=C(Nc1ccc2oc(-c3ccc4ccccc4c3)nc2c1)c1ccc(Cl)c(Cl)c1	inactive: 1.13%	
COc1ccc(OC)c(NC(=O)c2cn(CC(C)C)c(=O)c3cc(OC)c(OC)cc23)c1	inactive: -0.631%	
CCOc1ccc(-c2oc3ccc(C)cc3c(=O)c2O)cc1	inactive: 36.9%	
Fc1ccc(Nc2ncnc3c2nc2n3CCCCC2)c(F)c1	inactive: -11.1%	
COCCCNC(=O)c1ccc2c(c1)nc(C)n2-c1cccc(C)c1	inactive: -21.8%	
O=C(Nc1ccc(C(=O)OCc2cc(=O)n3nc(C4CC4)sc3n2)cc1)c1cccc(F)c1	inactive: -17.7%	
CCN(c1ccccc1)S(=O)(=O)c1ccc(NC(=O)c2cc(=O)c3ccccc3o2)cc1	inactive: -15%	
CCOC(=O)c1c(S(=O)(=O)N2CCC(C(=O)Nc3ncccc3C)CC2)c(C)n(C)c1C	inactive: -10.5%	
COc1ccc2c(CNC3CCCCCC3)c(C(=O)O)n(Cc3ccccc3F)c2c1	inactive: -26.9%	
CCC(=O)N1CCc2cc(Br)cc(S(=O)(=O)CCC(=O)N3CCN(c4cc(C)ccc4C)CC3)c21	inactive: -8.81%	
CCCc1nnc(NC(=O)c2cc(=O)c3cc(C)c(C)cc3o2)s1	inactive: -5.4%	
CCOC(=O)c1cnc2ccc(C)cc2c1Nc1ccc(N(CC)CC)cc1		active: 25.1 µM

Structure (SMILES)	activity change, negative = inhibition	Potency
Cc1ccc(N2CC(NC(=O)CCc3ccccc3)CC2=O)cc1 (centres undefined)	inactive: -17.6%	
CC1=C(C(=O)NCc2ccc(Cl)cc2)C2(CCCCCC2)OC1=O	inactive: -28.3%	
COc1ccc(-c2ccc3c(N)c(C(=O)Nc4cccc(C)c4)sc3n2)cc1	inactive: 4.16%	
COc1cccc(CSc2nc3n(n2)C(c2cccnc2)C(C(=O)Nc2ccccc2C)=C(C)N3)c1 (centres undefined)	inactive: 3.93%	
COc1ccccc1C(=O)Nc1ccc(C(=O)OCc2cc(=O)n3ccsc3n2)cc1	inactive: 3.56%	
Cc1nc2cc(C(=O)O)ccc2n1-c1ccc(C(C)C)cc1	inactive: 33%	
CCOC(=O)CCn1nc(C)c2c(C)n(-c3ccccc3)nc2c1=O	inactive: -15.1%	
Cc1cccc(N2CCN(C(=O)Cn3c(=O)c4cccn4c4ccc(F)cc43)CC2)c1C	inactive: -4.05%	
Cc1ccc(NC(=O)c2ccc(Br)cc2)c(C(=O)c2ccccc2)c1	inactive: -9.65%	
Cc1nc2nc(SCC(=O)NCc3ccccc3)nn2c(C)c1Cc1ccccc1	inactive: -23.6%	
COc1ccc(OC)c(CNC(=O)CN2C(=O)CCn3nc(-c4cn(C)c5ccccc45)cc32)c1	inactive: 10.4%	
CC(=O)Oc1ccccc1C(=O)O	inactive	
CCc1cccc(NC(=O)CN2C=NS(=O)(=O)c3ccccc32)c1	inactive: -22.3%	
CCOc1nc(NC(=O)NS(=O)(=O)Oc2ccccc2Cl)nc(-c2ccccc2)n1	inactive: 49.9%	
COc1cc2nc(NCC(C)c3ccccc3)n3nc(-c4ccccc4)nc3c2cc1OC (centres undefined)	inactive: 2.56%	
Cc1ccc(C)n1-c1nnc(N2CCCC(C(=O)NCc3ccccc3)C2)s1 (centres undefined)	inactive: -3.67%	
Cc1ccc(NC(=O)CCc2c(C)nc3nc(C)nn3c2C)c(Cl)c1	inactive: -11.7%	
CCOC(=O)c1ccccc1NC(=O)N(Cc1ccco1)C1CCN(C(C)=O)CC1	inactive: -14%	
CNC(=O)c1ccc(Nc2nnc(-c3ccc(C)c(S(=O)(=O)N4CCOCC4)c3)c3ccccc23)cc1	inactive: 2.49%	
O=C(c1ccco1)n1nc(-c2ccccc2)nc1NCc1ccccc1Cl	inactive: -4.78%	
Cc1ccc(N(Cc2cccs2)C(=O)COc2ccccc2[N+](=O)[O-])cc1	inactive: -31.1%	
Cc1cccc(-c2nc(Cn3c(SCc4cc(C)ccc4C)nc4ccncc43)c(C)o2)c1	inactive: -13.1%	
O=C(NCc1ccccc1Cl)C1CCC(CNS(=O)(=O)c2ccc(Br)s2)CC1 (centres undefined)	inactive: -7.89%	
Cc1ccc(-c2nn3c(-c4ccc(C)cc4)nnc3c3ccccc23)cc1	inactive: -3.73%	
CNS(=O)(=O)CCc1ccc2[nH]cc(C3CCN(C)CC3)c2c1	inactive: -4.53%	

Structure (SMILES)	activity change, negative = inhibition	Potency
COc1ccccc1-n1c(SCC(=O)Nc2ccc(C)cc2)nc(O)cc1=O	inactive: -16.1%	
COc1cc(CN(C(=O)c2oc3ccccc3c2C)C2CCS(=O)(=O)C2)cc(OC)c1OC (centres undefined)	inactive: -4.08%	
COc1cccc(NC(=O)c2cc3c(=O)n(Cc4cccnc4)ccc3nc2C)c1	inactive: 1.11%	
Cc1ccc(-c2nc(S(=O)(=O)c3ccc(C)cc3)c(SCC(=O)NC3CCCCC3)o2)cc1	inactive: -20%	
COc1ccc(-c2noc(-c3ccc(NC(C)c4ccccc4)c([N+](=O)[O-])c3)n2)cc1OC (centres undefined)	inactive: -10.2%	
CCOc1ccccc1CN(CCc1ccc2c(c1)OCO2)Cc1cccc(OC)c1OC	inactive: -35.6%	
CN(C)c1ccc(NC(=O)CSC2=Nc3ccccc3C3=NC(CC(=O)NCc4ccccc4)C(=O)N23)cc1 (centres undefined)	inactive: -4.59%	
CCN1CCC(N(Cc2ccc3c(c2)OCO3)C(=O)Nc2ccccc2OC)CC1	inactive: -10.6%	
CCOC(=O)c1c(C)[nH]c(CCC(=O)NCc2ccccc2C)c1C	inactive: -6.81%	
COc1cc(NC(=O)C(CCS(C)(=O)=O)N2Cc3ccccc3C2=O)cc(OC)c1OC (centres undefined)	inactive: -20.4%	
CCCN1C(=O)c2[nH]nc(-c3ccc(F)cc3)c2C1c1ccccn1 (centres undefined)	inactive: -4.21%	
Cc1ccc(N2CC(c3nnc(NC(=O)c4ccco4)s3)CC2=O)cc1C (centres undefined)	inactive: -10.6%	
O=C(NC1CCCC1)c1ccc(CSc2nc3ccncc3n2Cc2ccc(F)cc2)cc1	inactive: -32.6%	
COc1ccc(-n2cc(C(=O)NC(C)c3ccccc3)c3ccccc3c2=O)cc1 (centres undefined)	inactive: -10.8%	
CCCCC[C@H](O)C=C[C@H]1[C@H](O)CC(=O)[C@H]1CC=CCCCC(=O)O	inactive: -7.85%	
CCOc1ccc(NC(=O)c2ccc(-c3cccc(Cl)c3C)o2)cc1	inactive: 7.08%	
Cc1cccc(C2C=C(c3ccc(F)cc3)Nc3nc4ccccc4n32)c1 (centres undefined)	inactive: 51.9%	
CCOc1ccc(Cn2c(CNS(=O)(=O)c3ccc([N+](=O)[O-])cc3)nc3cccnc32)cc1	inactive: -7.14%	
COCCn1ccc2c(OCC(=O)NCc3ccc(F)cc3)cccc2c1=O	inactive: -2.54%	
O=C(Nc1nc2cccc(-c3ccc(CN4CCS(=O)(=O)CC4)cc3)n2n1)C1CC1	inactive: 25.3%	
CN(C)c1ccc(CNC(=O)C2CCN(S(=O)(=O)c3cn(C)cn3)CC2)cc1	inactive: -9.58%	
COc1ccc(NC(=O)c2cc(C3CC3)nc3c2c(C)nn3-c2ccc(C)cc2)cc1OC	inactive: -13.6%	
COc1ccccc1CNC(=O)c1oc2c(c1C)-c1nn(Cc3ccc(Cl)cc3)cc1CC2	inactive: -21%	
COc1ccc(NC(=O)c2sc3nc(-c4cc5cccc(OC)c5oc4=O)[nH]c(=O)c3c2C)cc1	inactive: -11.9%	
